Experimental data published in article PMC4336329 (PLoS ONE, 2015).
The whole screen tested about 310,000 compounds, of which about 2,200 (0.71%) showed an effect of 50% or more. Effects have a minus sign here. Some of the results follow.

Each compound was assayed against human ether-à-go-go-related gene (hERG) potassium channel (human, UniProt Q12809) (assay: primary screen, population patch clamp on CHO cells stably expressing hERG).
Sequence of human ether-à-go-go-related gene (hERG) potassium channel (Q12809 whole entry, looked up): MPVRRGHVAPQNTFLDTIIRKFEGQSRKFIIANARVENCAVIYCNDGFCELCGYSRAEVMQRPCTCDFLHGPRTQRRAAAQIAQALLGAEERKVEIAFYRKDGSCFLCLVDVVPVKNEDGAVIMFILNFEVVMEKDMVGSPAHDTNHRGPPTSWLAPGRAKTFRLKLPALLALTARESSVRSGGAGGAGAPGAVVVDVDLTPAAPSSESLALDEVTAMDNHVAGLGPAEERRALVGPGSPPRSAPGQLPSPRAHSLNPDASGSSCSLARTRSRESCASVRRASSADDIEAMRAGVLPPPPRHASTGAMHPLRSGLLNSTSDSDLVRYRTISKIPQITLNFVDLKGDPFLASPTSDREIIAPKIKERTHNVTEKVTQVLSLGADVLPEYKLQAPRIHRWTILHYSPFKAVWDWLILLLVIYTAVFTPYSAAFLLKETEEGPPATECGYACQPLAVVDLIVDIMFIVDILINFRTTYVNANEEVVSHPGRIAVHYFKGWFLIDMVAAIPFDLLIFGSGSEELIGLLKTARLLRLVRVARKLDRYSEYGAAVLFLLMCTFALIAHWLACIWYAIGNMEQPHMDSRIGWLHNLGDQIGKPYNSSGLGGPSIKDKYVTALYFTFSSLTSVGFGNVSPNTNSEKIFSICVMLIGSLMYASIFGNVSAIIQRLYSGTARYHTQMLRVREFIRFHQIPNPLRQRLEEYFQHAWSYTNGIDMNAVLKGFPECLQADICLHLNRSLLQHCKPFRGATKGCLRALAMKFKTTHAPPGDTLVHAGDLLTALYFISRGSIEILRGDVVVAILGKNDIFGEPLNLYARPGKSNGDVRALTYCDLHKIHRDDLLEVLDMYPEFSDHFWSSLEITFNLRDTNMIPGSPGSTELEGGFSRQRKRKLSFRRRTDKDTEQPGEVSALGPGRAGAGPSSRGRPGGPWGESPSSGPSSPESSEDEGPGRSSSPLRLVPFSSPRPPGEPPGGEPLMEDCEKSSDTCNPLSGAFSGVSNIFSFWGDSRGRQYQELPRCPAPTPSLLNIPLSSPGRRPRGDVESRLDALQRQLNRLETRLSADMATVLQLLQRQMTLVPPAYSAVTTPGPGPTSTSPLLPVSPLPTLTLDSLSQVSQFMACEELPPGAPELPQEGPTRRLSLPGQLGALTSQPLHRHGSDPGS

SMILES	hERG current change (%, negative = inhibition) at 1uM
CC(C)Cc1nc2sc3c(NCc4ccco4)ncnc3c2c2c1COC(C)(C)C2	-4.3%
CN1C(=O)[C@@H]2C[C@@]3([C@@]45C[C@H]6C(=O)N(C)[C@@H](Cc7ccccc7)C(=O)N6[C@@H]4Nc4ccccc45)c4ccccc4N[C@H]3N2C(=O)[C@@H]1Cc1ccccc1	5.93%
CN1C(=O)c2ccc(S(=O)(=O)c3ccc(C(=O)O)cc3)cc2C1=O	6.2%
CC1CCCCN1S(=O)(=O)c1ccc(C(=O)Nc2ccccc2-c2nc3ccccc3[nH]2)cc1 (stereo not drawn)	16.6%
CC(NC(=O)CSc1nc2sc3c(c2c(=O)n1-c1ccccc1)CCCC3)c1ccccc1 (stereo not drawn)	11.7%
CN(C)c1ccc(/C=C/C=N/Nc2nc(N3CCOCC3)nc(N3CCOCC3)n2)cc1	11.9%
O=C(Nc1ccccc1)C1=C[C@H](C2CCCCC2)C[C@H](OCCCCO)O1	9.32%
CCOC(=O)N1CCC(=NNc2ncc(C(F)(F)F)cc2Cl)CC1	6.98%
c1ccc(NCc2cccnc2)cc1	12.2%
CC1(C)Cc2c(sc3c2c(=O)n(-c2ccc(Cl)cc2)c(=O)n3CC(N)=O)CO1	10.8%
CCOc1ccc(NC(=O)C(=O)N/N=C/c2cccnc2)cc1	7%
Cn1cc(C(=O)N/N=C/C(Br)=C/c2ccccc2)ccc1=O	1.68%
COCC(C)NCc1cccc2ccccc12.O=C(O)C(=O)O (stereo not drawn)	11.3%
CC1CN(C(=O)Cn2c(C(F)(F)F)nc3ccccc32)CC(C)O1 (stereo not drawn)	16.1%
Cc1nn(-c2ccccc2)c(C)c1C(=O)OC(C)C(=O)NC1CCCCC1C (stereo not drawn)	2.39%
Cc1cc(SCc2ccc([N+](=O)[O-])cc2)nc(=O)[nH]1	7.95%
COc1cccc(OCCNC(=O)c2cccc(OC)c2)c1	4.68%
CCOc1ccccc1OCCCC(=O)N1CCN(S(=O)(=O)c2ccc(C)cc2)CC1	2.61%
CCN1C(=O)[C@H]2[C@@H](c3ccc(OC)cc3)N3C(=O)CN(Cc4ccccc4)C(=O)[C@@]3(Cc3ccccc3)[C@H]2C1=O	9.26%
CC(=O)c1ccc(N2C(=O)C3C4C=CC(CC4)C3C2=O)cc1 (stereo not drawn)	11.2%
COc1cc(/C=N/NC(=O)c2ccc(O)cc2)ccc1OCC(=O)N1CC(C)OC(C)C1 (stereo not drawn)	13%

SMILES	hERG current change (%, negative = inhibition) at 1uM
O=C(Nc1cccc(NC(=O)c2ccco2)n1)c1ccco1	-5.95%
CN(C)c1ccc(S(=O)(=O)NCC(=O)NCCOc2ccccc2F)cc1[N+](=O)[O-]	13.8%
Cc1ccc(CNC(=O)c2ccc(S(=O)(=O)N(C)C)cc2)n1C	18.4%
O=C(NCCc1ccccc1)c1cccc(N2C(=O)C3CC=CCC3C2=O)c1 (stereo not drawn)	3.51%
CCC(c1nnc(SCC(=O)NCCc2ccc(OC)c(OC)c2)n1Cc1ccccc1)N(C)C (stereo not drawn)	18.1%
CCOC(=O)N1CCN(C(=O)C(C)N(c2ccc(Oc3ccccc3)cc2)S(C)(=O)=O)CC1 (stereo not drawn)	-11.3%
CCCNC(=O)c1c(C)cc(=O)oc1C	-4.47%
CC(C)(C)CC(=O)Nc1cc2c3c(c1)CCC(=O)N3CCC2	10.2%
C=CCN1C(=O)C(O)=C(C(C)=O)C1c1ccccc1F (stereo not drawn)	6.75%
CCOC(=O)c1[nH]c2ccc(OC)cc2c1NC(=O)CCN1CCCC(C)C1 (stereo not drawn)	-3.69%
CCOC(=O)C1=C(C)NC(=S)NC1c1ccc(OCC(=O)N2CCCCCC2)cc1 (stereo not drawn)	4.07%
CC(=O)Oc1ccc(/C=C2\N=C(C3CCCCC3)OC2=O)cc1	13.3%
CCOC(=O)C1=NNC2(CC(=O)N(c3cc(C)cc(C)c3)C2=O)C1 (stereo not drawn)	23.8%
CCCNC(=O)c1nc(C)n(-c2ccc([N+](=O)[O-])cc2)n1	-3.29%
COc1ccc(N=Cc2c(O)n(C)c(=O)[nH]c2=O)cc1	16.7%
COc1ccc(N2CC(C(=O)NCCS(=O)(=O)N3CCN(c4ccccc4)CC3)CC2=O)cc1 (stereo not drawn)	13.8%
Cc1nc2cc(-c3ccccc3)nn2c(C)c1CCC(=O)N1CCN(c2ccccc2)CC1	-14.6%
O=C(NNS(=O)(=O)c1ccc(Cl)cc1)c1ccc(S(=O)(=O)N2CCCCC2)cc1	0.353%
O=Cc1ccc(N2CCCC2)o1	11.1%
COc1cccc(NC(=O)Cn2cnc3sc(C)c(S(=O)(=O)N4CCCCC4)c3c2=O)c1	9.61%
C[N+]12CCC(CC1)C(C#N)(N1CCOCC1)C2.[I-] (stereo not drawn)	11.8%

SMILES	hERG current change (%, negative = inhibition) at 1uM
COc1ccccc1CNC(=O)COC(=O)/C=C/c1cccs1	16.2%
CC1=NN(C(=O)Cc2ccccc2)C(O)(c2cccnc2)C1 (stereo not drawn)	-6.16%
O=C(Cc1ccc(Br)cc1)Nc1nc2ccccc2[nH]1	15.2%
CCc1ccc2oc(-c3cccc(NC(=O)c4cccnc4)c3)nc2c1	-0.871%
CC(C)(C)NC(=O)N1CCCC(C(=O)c2cccc(Cl)c2)C1 (stereo not drawn)	13.5%
CCCCCSc1nnc2c(n1)OC(c1cccn1C)N(C(C)=O)c1ccccc1-2 (stereo not drawn)	8.98%
NS(=O)(=O)c1ccc(NC(=O)c2cc(-c3cccs3)nc3ccccc23)cc1	1.54%
Cc1nn(Cc2ccccc2)c(Cl)c1C(=O)OC(C)C#N (stereo not drawn)	10.3%
O=C(NCCc1ccco1)C(=O)NCC1OCCCN1S(=O)(=O)c1ccc(F)cc1 (stereo not drawn)	6.84%
CCOc1cc(/C=N/NC(=O)C(C)Sc2ccccn2)ccc1O (stereo not drawn)	3.55%
COc1cc(-c2nnc(CSc3nnc(Nc4ccc(Oc5ccccc5)cc4)s3)o2)cc(OC)c1OC	-3.05%
CC(=O)Nc1c(F)cc(Br)cc1F	16.9%
Cc1noc(C)c1CSCC(=O)N(CC(C)C)c1c(N)n(Cc2ccccc2)c(=O)[nH]c1=O	2.14%
Cn1nnc2c(sc3nc(N4CCOCC4)c4c(c32)CCCC4)c1=O	-2.97%
Cc1ccc(SCCC(=O)OC(C)C(=O)Nc2ccccc2)cc1 (stereo not drawn)	5.51%
Cn1c(O)c(C(c2ccccn2)c2c(O)n(C)c(=S)[nH]c2=O)c(=O)[nH]c1=S	3.85%
CC(C)C[C@H](N)c1nnc(SCC(=O)Nc2ccc(Br)cc2)o1	8.89%
N#Cc1cccnc1N1CCN(C(=O)c2ccc3c(c2)S(=O)(=O)c2ccccc2C3=O)CC1	-5.57%
O=C1c2ccccc2NC(c2cccc([N+](=O)[O-])c2)N1O (stereo not drawn)	9.58%
O=C1CC(N2CCC(c3nc4ccccc4o3)CC2)C(=O)N1Cc1cccs1 (stereo not drawn)	-9.95%
O=Cc1cn(CC(=O)N2CCOCC2)c2ccccc12	11.1%

SMILES	hERG current change (%, negative = inhibition) at 1uM
O=C(COC(=O)c1ccc(NS(=O)(=O)c2ccc(Br)s2)cc1)NC1CCCC1	10.9%
CN(C)c1cc(-c2ccc(Cl)c(Cl)c2)oc(=O)c1Cl	13.4%
COC(=O)CCC(=O)NC1CC(C)(C)Cc2c1cnn2-c1ccccc1 (stereo not drawn)	0.508%
CN=C1SC(CC(=O)Nc2sc(C)c(C)c2C(=O)OC)C(=O)N1C (stereo not drawn)	2.13%
CN(c1ccc(C(=O)Nc2ccc(F)cc2F)cc1)S(=O)(=O)c1ccccc1	6.03%
COc1ccc(CCNC(=O)CN2C(=O)NC(CCSC)C2=O)cc1 (stereo not drawn)	7.53%
O=C(Nc1ccc2c(c1)OCCO2)C1CCN(C(=O)c2ccc(Br)cc2)CC1	1.28%
COC(=O)c1c(NC(=O)c2ccccc2OC)sc(C(=O)N2CCOCC2)c1C	4.67%
CCN(CC)S(=O)(=O)c1cc(C(=O)OCC(=O)Nc2cccc(S(=O)(=O)N(C)C)c2)ccc1F	14.4%
COc1cccc(/C=C2\SC(=S)N(CC(=O)N(C)C3CCS(=O)(=O)C3)C2=O)c1 (stereo not drawn)	2.27%
O=C(Cc1ccc(Br)cc1)N1CCN(C(=O)c2ccccc2)CC1	-4.11%
CCC(=O)Nc1ccc2c(c1)nc1n2CCN(CCOC)C1	16%
O=[N+]([O-])c1ccc(Cl)cc1CN1CCCCCC1	6.63%
CCOC(=O)c1ccc(NC(=O)Cn2ccc([N+](=O)[O-])n2)cc1	-12.1%
COCC(=O)Nc1ncc(S(=O)(=O)c2ccc([N+](=O)[O-])cc2)s1	3.46%
O=C(O)c1ccc(N/N=C/C2=C(N3CCOCC3)C(=C\c3ccccc3)/CC2)cc1	2.74%
Cn1c(CNC(=O)CNS(=O)(=O)c2ccc(F)cc2F)cc(=O)n(C)c1=O	29.9%
N#Cc1ccc(CN2CCN(C(=O)CCNS(=O)(=O)c3ccc(F)c(F)c3)CC2)cc1	-62.3%
CCOc1cccc(-c2nnc3n2N=C(c2cc(OC)ccc2OC)CS3)c1	16.7%
CCC(=O)Oc1ccc2c(C)cc(=O)oc2c1C	7.33%
COc1ccc(NC(=O)C2CCCN(c3nn4c(=O)cc(C)nc4s3)C2)c(OC)c1 (stereo not drawn)	15%
